Where “and” joins values, the source holds several entries; their conditions need not be identical. Equal entries are not always repeated. The campaign covered roughly 420,000 compounds. About 64,000 (15%) were called active. Inconclusive means that the source gave no clear call. Such entries were picked first, then a sample of the others. The call rests on the fitted dose curve; in most records, active means well fitted inhibition curve with a large enough effect; inconclusive means small, poorly fitted or top-dose-only effect; inactive means flat fitted curve, though single readings scatter. Potencies of inconclusive entries are doubtful fits and often do not repeat.
test: qHTS for Inhibitors of human tyrosyl-DNA phosphodiesterase 1 (TDP1): qHTS in cells in absence of CPT; conditions: DT40 Tdp1-/- hTDP1 cells, no CPT, ATP luminescence, 48 h; activity change, negative = growth inhibition: at 46.2 µM (top of the series) unless noted; further: nearly all actives have a fitted effect of over 55% in size
Procedure, shortened: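 DT40 Tdp1-/-;hTDP1 cells, no CPT (DMSO vehicle only), 400 cells/well; compounds pin-transferred; ≥48 hr, 37 °C; CellTiter-Glo 30 min RT dark, luminescence read.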
On the % scale 0 is the no-effect control and ±100 the full control effect; potency means the concentration at half of the fitted maximal effect; tags describe the fitted curve by direction and shape.

SMILES	Potency	activity change, negative = growth inhibition
Cc1ccccc1-c1cc(C(=O)NCc2cccs2)n(CC2CC(c3cccnc3)=NO2)n1 (stereo not drawn)	inconclusive: 16.4 µM [inhibitor, single point]	–
COCCn1c(-c2ccccc2)csc1=Nc1cccnc1	inconclusive: 23.1 µM [inhibitor, single point]	–
Cc1c(CC(=O)NCCC(C)C)c(=O)oc2cc3c(cc12)CCC(C)(C)O3	active: 20.6 µM	–
CCc1ccc(-n2nnc(-c3nsc(NC(=O)c4ccccc4Cl)n3)c2C)cc1	inconclusive: 29.1 µM [inhibitor, single point]	–
O=C(NC(=S)Nc1ccc(S(=O)(=O)N2CCCC2)cc1)C1CC1	inconclusive: 11.6 µM [inhibitor, partial curve]	–
CC(=O)Nc1ccc(NC(=O)c2cc(=O)c3ccccc3o2)cc1	inconclusive: 14.6 µM [inhibitor, partial curve] and inconclusive: 6.51 µM [inhibitor, partial curve]	–
COC(=O)c1ccc(C(c2c(C)[nH][nH]c2=O)c2c(C)[nH][nH]c2=O)cc1	–	inactive: -27.8%
Cc1cc(-c2ccc(C)c(S(=O)(=O)Nc3cccc(C)n3)c2)on1	inconclusive: 29.1 µM [inhibitor, single point]	–
CN1/C(=C\C(=S)NC(=O)c2cccc(Br)c2)C(C)(C)c2ccccc21	active: 5.17 µM	–
CCOC(=O)c1cnc2cc(F)c(F)cc2c1N1CCOCC1	inconclusive: 20.6 µM [inhibitor, partial curve]	–
Cc1ccc2c(c1)N(C(=O)N1CCC(C(=O)NCc3cccc(Br)c3)CC1)CCO2	active: 20.6 µM	–
COc1ccc(N(CC(=O)NCCc2ccc(S(N)(=O)=O)cc2)S(=O)(=O)c2c(C)noc2C)cc1	–	inactive: 3.68%
COc1ccccc1Oc1coc2cc(O)ccc2c1=O	inconclusive: 0.0146 µM [inhibitor, full curve, poor fit]	–
CCCc1nn(C)c2c(=O)[nH]c(-c3cc(S(=O)(=O)Nc4ccc(NC(C)=O)cc4)ccc3OCC)nc12	inconclusive: 14.6 µM [inhibitor, partial curve, poor fit]	–
O=C(Nc1ccccc1N1CCCCC1)c1ccc(-c2cccc(Cl)c2)o1	–	inconclusive: -32.6% [inhibitor]
CC(C)c1ccccc1NCC(=O)N1CCN(Cc2ccccc2)CC1	inconclusive: 18.4 µM [inhibitor, single point]	–
O=C(N/N=C/c1ccc[nH]1)c1ccc(COc2cccc3cccnc23)cc1	–	inactive: -46.9%
COCCNC(=O)C1(C)CCCN(C(=O)c2ccc3c(c2)OCO3)C1 (stereo not drawn)	–	inactive: 0.31%
